Reference: the supplement of paper PMC12067230
The data scatter; read single values as rough.

Assay: amyloid nucleation score relative to library mode (yeast Sup35 reporter selection) (log enrichment difference); higher = more amyloid nucleation; sequences are the first 22 residues of the Bri2 peptide extended by up to 12 random residues
Details: random library (experiment): 1;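 active = nucleation score significantly above 0 at FDR 0.05; inactive = not significantly above 0 or absent from output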
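Also: [psi-pin-] Saccharomyces cerevisiae expressing SupN fusions, induced by 100 µM Cu2SO4, selected 7 d at 30 °C without adenine and uracil, scored by deep sequencing of output versus input.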

Row | Sequence | amyloid nucleation score
1 | EASNCFAIRHFENKFAVETLICYMRAWVLEVTRA | 0.474
2 | EASNCFAIRHFENKFAVETLICHDVAR | inactive
3 | EASNCFAIRHFENKFAVETLICDGLVWFAAKARM | inactive
4 | EASNCFAIRHFENKFAVETLICGDGETAVHQSTG | -0.0664
5 | EASNCFAIRHFENKFAVETLICPHHVDLSESNLS | inactive
6 | EASNCFAIRHFENKFAVETLICHVRY | inactive
7 | EASNCFAIRHFENKFAVETLICVDENNRWFRLVT | 4.65
8 | EASNCFAIRHFENKFAVETLICRS | -0.399
9 | EASNCFAIRHFENKFAVETLICAGLCFSERVRSR | inactive
10 | EASNCFAIRHFENKFAVETLICMDSCMANCVSLA | 3.81
11 | EASNCFAIRHFENKFAVETLICNVNRTTAWPNLE | 1.03
12 | EASNCFAIRHFENKFAVETLICVPGEKWRVVVMK | inactive
13 | EASNCFAIRHFENKFAVETLICGTALM | inactive
14 | EASNCFAIRHFENKFAVETLICFENVYQTSAFGL | 3.17
15 | EASNCFAIRHFENKFAVETLICAPAYENRMSLVW | inactive
16 | EASNCFAIRHFENKFAVETLICDVSSVFI | inactive
17 | EASNCFAIRHFENKFAVETLICMLSGIHTKNHGE | 3.57
18 | EASNCFAIRHFENKFAVETLICKGYRYAVRVGVI | inactive
19 | EASNCFAIRHFENKFAVETLICGVWFHLCTGTRV | inactive
20 | EASNCFAIRHFENKFAVETLICIWLEAFGLSGYS | inactive
21 | EASNCFAIRHFENKFAVETLICVIGPKIARNKWP | inactive
22 | EASNCFAIRHFENKFAVETLICGLNMM | 5.69
23 | EASNCFAIRHFENKFAVETLICVGDVPFLFGSLR | 4.35
24 | EASNCFAIRHFENKFAVETLICCDVHK | -0.00976
25 | EASNCFAIRHFENKFAVETLICVALYKEQRKTRE | inactive
26 | EASNCFAIRHFENKFAVETLICYRWGRYLSVRSV | inactive
27 | EASNCFAIRHFENKFAVETLICYN | 3.72

Row | Sequence | amyloid nucleation score
28 | EASNCFAIRHFENKFAVETLICGWVIRLRSGWNE | inactive
29 | EASNCFAIRHFENKFAVETLICAPVMGVCSVCPR | 6.87
30 | EASNCFAIRHFENKFAVETLICRRS | inactive
31 | EASNCFAIRHFENKFAVETLICKVKSGWLPREQR | inactive
32 | EASNCFAIRHFENKFAVETLICGVEFQYSVARWS | inactive
33 | EASNCFAIRHFENKFAVETLICVNDTGRPCHTGR | inactive
34 | EASNCFAIRHFENKFAVETLICLKLDCMLELFGI | 3.84
35 | EASNCFAIRHFENKFAVETLICWREWRQWHAPLL | inactive
36 | EASNCFAIRHFENKFAVETLICVRRSRLGGLPVR | inactive
37 | EASNCFAIRHFENKFAVETLICRSREP | 5.52
38 | EASNCFAIRHFENKFAVETLICVTVCRVSARRGR | inactive
39 | EASNCFAIRHFENKFAVETLICRSERATRMGTAT | inactive
40 | EASNCFAIRHFENKFAVETLICYGVRQTRDVVFS | 4.19
41 | EASNCFAIRHFENKFAVETLICVSVRKVTTPNAL | 0.7
42 | EASNCFAIRHFENKFAVETLICVLKYFTMCGI | inactive
43 | EASNCFAIRHFENKFAVETLICCEWLGLYANAAL | 2.88
44 | EASNCFAIRHFENKFAVETLICAMYHRVCCDLSG | inactive
45 | EASNCFAIRHFENKFAVETLICKLAHMLWLSSTM | inactive
46 | EASNCFAIRHFENKFAVETLICYWLKCGGNVLWK | -0.386
47 | EASNCFAIRHFENKFAVETLICFHWISVPGKEGG | 0.466
48 | EASNCFAIRHFENKFAVETLICTGPEYVM | inactive
49 | EASNCFAIRHFENKFAVETLICCLGQYVCKCWTG | 8.15
50 | EASNCFAIRHFENKFAVETLICVVTHGGARYTGY | -0.00976
51 | EASNCFAIRHFENKFAVETLICYSGWTVYVASRS | inactive
52 | EASNCFAIRHFENKFAVETLICCSSSWLAVLMEW | 6.55
53 | EASNCFAIRHFENKFAVETLICYVLCMGPFRCST | inactive
54 | EASNCFAIRHFENKFAVETLICFI | 6.61

Same assay, conditions: random library (experiment): 2

Row | Sequence | amyloid nucleation score
55 | EASNCFAIRHFENKFAVETLICISQVWHADRPTR | 3.32
56 | EASNCFAIRHFENKFAVETLICNTVS | inactive
57 | EASNCFAIRHFENKFAVETLICFKTTMMTNKGEN | inactive
58 | EASNCFAIRHFENKFAVETLICVCVVCRAQHSAC | 2.88
59 | EASNCFAIRHFENKFAVETLICHCMSFSVSRYYP | 6.48
60 | EASNCFAIRHFENKFAVETLICWIIRLYSMSVRW | inactive
61 | EASNCFAIRHFENKFAVETLICLSIVVNTVCLIE | inactive
62 | EASNCFAIRHFENKFAVETLICWSGP | 2.44
63 | EASNCFAIRHFENKFAVETLICVCLRWVSVASST | 0.777
64 | EASNCFAIRHFENKFAVETLICGSVVFSCWTIGG | inactive
65 | EASNCFAIRHFENKFAVETLICWDCGSLPQRWSP | 5.03
66 | EASNCFAIRHFENKFAVETLICHRKSHTFVVFSR | inactive
67 | EASNCFAIRHFENKFAVETLICALYTVVFWRKSF | inactive
68 | EASNCFAIRHFENKFAVETLICDCVRTTGKRCRY | 5.08
69 | EASNCFAIRHFENKFAVETLICAMF | 4.1
70 | EASNCFAIRHFENKFAVETLICAFYMSRFLGSFG | inactive
71 | EASNCFAIRHFENKFAVETLICYVRYVRGFFD | 0.607
72 | EASNCFAIRHFENKFAVETLICGGRDWFGVSGLS | 4.11
73 | EASNCFAIRHFENKFAVETLICDMYTDNSASTDG | inactive
74 | EASNCFAIRHFENKFAVETLICVSFVYFFDRIRV | 2.34
75 | EASNCFAIRHFENKFAVETLICLYVLCTVELYHV | inactive
76 | EASNCFAIRHFENKFAVETLICLMYNYQHRVFLS | inactive
77 | EASNCFAIRHFENKFAVETLICLGIGAFDSMYVD | 6.31
78 | EASNCFAIRHFENKFAVETLICKSKFGMYVWWIG | inactive
79 | EASNCFAIRHFENKFAVETLICFAIVICIHKMSA | 4.55
80 | EASNCFAIRHFENKFAVETLICLKGMQSWIICSS | inactive
81 | EASNCFAIRHFENKFAVETLICYVQPC | inactive
82 | EASNCFAIRHFENKFAVETLICVSCATFTGTSRS | 9.96
83 | EASNCFAIRHFENKFAVETLICDGSRL | 0.693
84 | EASNCFAIRHFENKFAVETLICCLNNFVTQSHFA | 8.58

Same assay, conditions: random library (experiment): 3

Row | Sequence | amyloid nucleation score
85 | EASNCFAIRHFENKFAVETLICRDGKTCGMFER | inactive
86 | EASNCFAIRHFENKFAVETLICGFYCVYSSLIQQ | inactive
87 | EASNCFAIRHFENKFAVETLICYKIARMCVRRTG | inactive
88 | EASNCFAIRHFENKFAVETLICRRKLQTGRGSAP | inactive
89 | EASNCFAIRHFENKFAVETLICDGWGT | inactive
90 | EASNCFAIRHFENKFAVETLICDFCTVMGDDVSL | 5.66
91 | EASNCFAIRHFENKFAVETLICGVDVTDSDLELV | inactive
92 | EASNCFAIRHFENKFAVETLICYSIVKVSKYT | inactive
93 | EASNCFAIRHFENKFAVETLICQHVVLGHGRRTW | 2.46
94 | EASNCFAIRHFENKFAVETLICANGLVVDTGLVV | inactive
95 | EASNCFAIRHFENKFAVETLICEWNFVYYCHF | inactive
96 | EASNCFAIRHFENKFAVETLICQRSWYLMRFMKA | inactive
97 | EASNCFAIRHFENKFAVETLICIFVEYMVTNSRW | inactive
98 | EASNCFAIRHFENKFAVETLICCVAVLLVICGWS | inactive
99 | EASNCFAIRHFENKFAVETLICVSIFYEHNWSAL | 3.86
100 | EASNCFAIRHFENKFAVETLICVWPVER | 5.2
101 | EASNCFAIRHFENKFAVETLICCEGMDVGAEPRV | inactive
102 | EASNCFAIRHFENKFAVETLICGCKIIY | 5.5

Row | Sequence | amyloid nucleation score
103 | EASNCFAIRHFENKFAVETLICGRWMRYRRDGDA | 4.57
104 | EASNCFAIRHFENKFAVETLICVKWKCRMYSSSF | inactive
105 | EASNCFAIRHFENKFAVETLICRRNPGLNFRWIE | inactive
106 | EASNCFAIRHFENKFAVETLICRSDVSSMLRTVS | inactive
107 | EASNCFAIRHFENKFAVETLICEAFQDACLRL | inactive
108 | EASNCFAIRHFENKFAVETLICPHGDHSAGVVRD | inactive
109 | EASNCFAIRHFENKFAVETLICNVCCYARYVLLS | inactive
110 | EASNCFAIRHFENKFAVETLICKKGHDLSLDDTG | 0.551
111 | EASNCFAIRHFENKFAVETLICAYHENWPGSRAV | inactive
112 | EASNCFAIRHFENKFAVETLICYGWGRRP | 4.92
113 | EASNCFAIRHFENKFAVETLICVTRSVLFQLSVV | inactive
114 | EASNCFAIRHFENKFAVETLICRMMAIVDRLVWK | inactive
115 | EASNCFAIRHFENKFAVETLICGATMLWRDTR | 4.81
116 | EASNCFAIRHFENKFAVETLICVWFYMICWQSAE | inactive
117 | EASNCFAIRHFENKFAVETLICCAAYWNGKPGRD | 8.33
118 | EASNCFAIRHFENKFAVETLICNAPGTIL | inactive
119 | EASNCFAIRHFENKFAVETLICHTYWWMFRFISS | inactive
